# Experimental data as given in PubChem BioAssay AID2675 (National Center for Advancing Translational Sciences (NCATS), 2010).
# About 100 (0.036%) of roughly 280,000 compounds were called active. This list was built around the results that the source calls inconclusive (neither active nor inactive); the mix of calls is not that of the screen. The call rests on the fitted dose curve; in most records, active means well fitted inhibition curve with a large enough effect in the signal ratio, with a control signal flat (not every such curve was filed as active); inconclusive means small, poorly fitted or top-dose-only effect, or effect the other way, or a change in a side signal; inactive means no such curve, though single readings can be large or run the other way; the % refers to the signal ratio. Potencies beside an inconclusive call are fits to weak or partial responses and may not hold up. A note “side channel” means that the fit belongs to a control or component signal, not to the main read-out.
# Molecular target: Muscleblind-like protein 1 (Homo sapiens) (UniProt Q9NR56)
# Test: qHTS Assay for Inhibitors of MBNL1-poly(CUG) RNA binding
# Conditions: TR-FRET MBNL1-His/biotin-(CUG)12 binding, 665/545 ratio; activity change, negative = inhibition: at 57.5 µM (top of the series)
# Procedure, shortened: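 Compounds (final 92 nM to 58 uM) are added to His-tagged MBNL1 and biotin-(CUG)12, then terbium anti-His antibody and streptavidin-XL665 (5 nM final). After 60 min at room temperature, the 665/545 nm ratio is read.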
# On the % scale 0 is the no-effect control and ±100 the full control effect; potency means the concentration at half of the fitted maximal effect; tags describe the fitted curve by direction and shape or compound fluorescence and quenching.
# Chain of UniProt Q9NR56 (Q9NR56 whole entry, looked up): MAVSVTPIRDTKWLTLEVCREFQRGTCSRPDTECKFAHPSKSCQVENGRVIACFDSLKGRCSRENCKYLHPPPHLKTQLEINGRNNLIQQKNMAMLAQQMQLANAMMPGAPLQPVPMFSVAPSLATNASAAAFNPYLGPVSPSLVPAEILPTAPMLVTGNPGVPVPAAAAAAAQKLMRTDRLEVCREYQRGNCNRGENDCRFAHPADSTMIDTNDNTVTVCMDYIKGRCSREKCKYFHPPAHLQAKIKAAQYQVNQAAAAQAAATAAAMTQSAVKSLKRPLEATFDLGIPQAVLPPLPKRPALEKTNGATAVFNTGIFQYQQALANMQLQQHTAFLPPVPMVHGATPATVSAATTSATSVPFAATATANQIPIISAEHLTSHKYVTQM
Compound,Potency,"activity change, negative = inhibition"
N#Cc1cc([N+](=O)[O-])ccc1Oc1cccc(/C=N/NC(=O)c2cccc(Cl)c2)c1,"inconclusive: 28.2 µM [quencher, side channel, single point]",
Cc1cc2ccccn2c1C(=O)Nc1ccccc1,"inconclusive: 31.6 µM [quencher, side channel, single point]",
COc1cc(/C=N\Nc2cc(=O)n(C)c(=O)n2C)ccc1O,"inconclusive: 3.16 µM [quencher, side channel, single point]",
CC(=O)Nc1ccc(NC(=O)CN(c2cc(Cl)ccc2Cl)S(C)(=O)=O)cc1,,inactive: -6.79%
CN1CCN(CCC2Oc3cc([N+](=O)[O-])ccc3NC2=O)CC1 (configuration not stated),"inconclusive: 11.2 µM [quencher, side channel, partial curve]",
O=S1(=O)C=C(Sc2nnc(-c3ccccc3)o2)c2ccccc21,"inconclusive: 31.6 µM [quencher, partial curve]",
O=C(NCC1CCCO1)/C(=C\c1cccc([N+](=O)[O-])c1)NC(=O)c1ccccc1 (configuration not stated),"inconclusive: 17.8 µM [quencher, side channel, partial curve]",
CC(C)CCNc1nc(N)c([N+](=O)[O-])c(NCC2CCCO2)n1 (configuration not stated),"inconclusive: 0.631 µM [quencher, side channel, full curve, poor fit]",
Cn1cc(CNC(=O)C23CC4CC(CC(C4)C2)C3)cn1,"inconclusive: 8.91 µM [fluorescent, side channel, partial curve]",
Cc1ccccc1Nc1nnc(SCc2nc3ccccc3c(=O)[nH]2)s1,,inactive: -1.83%
O=S(=O)(c1ccc2c(c1)OCCO2)N1CCN(c2ncnc3sccc23)CC1,,inactive: -3.13%
COc1ccc(C(=O)NNC(=O)CSc2nnc(COc3ccccc3)n2C)cc1,"inconclusive: 0.447 µM [quencher, side channel, single point]",
CN1C(C(=O)Nc2ccc(OC(F)(F)F)cc2)=CC(c2ccco2)=NS1(=O)=O,"inconclusive: 28.2 µM [quencher, side channel, single point]",
Cc1ccc(OCCNS(=O)(=O)c2ccc(N3CCCC3=O)cc2)cc1,,inactive: -2.56%
O=C(c1cc2cc([N+](=O)[O-])ccc2oc1=O)n1cccn1,"inconclusive: 25.1 µM [quencher, side channel, partial curve]",
Cc1ccccc1C(=O)OC1OC(=O)C(Cl)=C1Nc1ccc(C(=O)O)cc1 (configuration not stated),,inactive: -4.81%
CSCC[C@H](NC(=O)c1ccc(Cl)c([N+](=O)[O-])c1)c1nc2ccccc2[nH]1,"inconclusive: 12.6 µM [quencher, side channel, partial curve]",
O=C(CN1C(=O)CSc2ncccc21)N1CCOCC1,"inconclusive: 0.891 µM [quencher, side channel, full curve]",
CCOC(=O)Cn1cc(Cl)cc(C(=O)Nc2ccccc2)c1=O,"inconclusive: 20 µM [quencher, side channel, single point]",

Compound,Potency,"activity change, negative = inhibition"
COc1cc(Cl)cc2c1Sc1ccccc1/C2=C/CCN(C)C,"inconclusive: 39.8 µM [quencher, side channel, single point]",
COc1ccc(C(=O)N/N=C/c2ccc(OC)c(CSc3ccccn3)c2)cc1,"inconclusive: 4.47 µM [quencher, side channel, single point]",
O=C(O)c1cccc(NC(=O)c2ccc3c(c2)C(=O)N(Cc2ccco2)C3=O)c1,"inconclusive: 7.94 µM [quencher, side channel, partial curve]",
COc1cccc(C(=O)NC(=S)Nc2ccccc2N2CCCC2)c1,,inactive: -8.83%
CC(NC(=O)C1CCCN(S(=O)(=O)c2cccc3nonc23)C1)c1ccccc1 (configuration not stated),"inconclusive: 12.6 µM [quencher, partial curve]",
Cc1ccc2c(c1)N(Cc1ccc([N+](=O)[O-])cc1)C=NS2(=O)=O,"inconclusive: 15.8 µM [quencher, side channel, partial curve]",
O=[N+]([O-])c1ccc(O)c(-c2nn[nH]n2)c1,"inconclusive: 31.6 µM [quencher, side channel, single point]",
CN(C)C(=O)COc1ncnc2sc(-c3ccccc3)cc12,"inconclusive: 25.1 µM [quencher, side channel, partial curve]",
O=C(c1ccc(C(F)(F)F)cc1)N1CCC(=O)N(C(COCc2ccc(C(F)(F)F)cc2)Cc2ccccc2)CC1 (configuration not stated),,inactive: 36.2%
Cc1nc(NC(=O)C2CC2)sc1C(=O)Nc1ccccc1Cl,"inconclusive: 28.2 µM [fluorescent, side channel, single point]",
O=C(O)c1cccc(-n2nc(-c3ccc(Cl)c([N+](=O)[O-])c3)c3ccccc3c2=O)c1,"inconclusive: 22.4 µM [quencher, side channel, partial curve]",
O=C(O)c1cccc(NS(=O)(=O)c2cccc(C(=O)Nc3ccccc3[N+](=O)[O-])c2)c1,"inconclusive: 35.5 µM [quencher, side channel, single point]",
Cc1cc([N+](=O)[O-])ccc1NCc1cccc([N+](=O)[O-])c1,"inconclusive: 25.1 µM [quencher, side channel, partial curve]",
CC1CC(C)CN(CCCCOc2ccc([N+](=O)[O-])cc2)C1 (configuration not stated),"inconclusive: 22.4 µM [quencher, side channel, single point]",
COc1ccc(Cl)cc1C(=O)C1CCCN(Cc2cnc(N3CCOCC3)s2)C1 (configuration not stated),,inactive: -6.15%
Cc1ccc(O)c(C(=O)c2cnn(C(=O)COc3ccc(Cl)cc3)c2)c1,,inactive: -0.515%
Cc1c(C(=O)Nc2cccc([N+](=O)[O-])c2)sc2ncn(CC(=O)N3CCOCC3)c(=O)c12,"inconclusive: 8.91 µM [quencher, side channel, partial curve]",
COc1ccccc1C1C(C#N)=C(N)N(c2cccnc2)C2=C1C(=O)CC(C)(C)C2 (configuration not stated),"inconclusive: 0.398 µM [quencher, side channel, partial curve, poor fit]",
